Source: PubChem BioAssay AID1508623 (National Center for Advancing Translational Sciences (NCATS), 2021)
About 450 (0.94%) of roughly 48,000 compounds were called active. Roughly 19% stayed inconclusive and do not appear here. Calls come from the whole dose curve; as a rule, active = well fitted inhibition curve with a large enough effect; inconclusive = small, poorly fitted or top-dose-only effect; inactive = no such curve, though single readings can be large or run the other way. Some of the results follow.

Assay: Primary qHTS for Identification of Small Molecule Inhibitors of Huntingtin Promoter Activity; note: nearly all actives have a fitted effect of over 50% in size
Settings: HEK293 HTT promoter firefly luciferase reporter (activity 0% = vehicle and -100% = no light), 24 h; series mostly up to 57.5 µM; activity change, negative = inhibition: at the top concentration
In short: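 Quantitative HTS used concentration series of up to 57.5 uM final on HEK293 luciferase reporter cells, 24 h at 37 degrees C. Readout was Dual-Glo firefly luminescence.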

Activity change, negative = inhibition, inactive:
COc1ccc(NS(=O)(=O)c2ccc3c(c2)n(C)c(=O)c(=O)n3C)cc1Cl -17.6%
O=C(CSc1n[nH]c(-c2ccccc2)n1)NCCc1ccccc1 -14.1%
NC[C@H]1O[C@H](O[C@H]2[C@@H](O)[C@@H](O[C@H]3O[C@H](CO)[C@@H](O)[C@H](N)[C@@H]3O)[C@H](N)C[C@@H]2N)[C@H](N)C[C@H]1O 2.73%
COc1cccc(CNC(=O)CCS(=O)(=O)c2cc3c4c(c2)CCN4C(=O)CC3)c1 -18%
COc1ccccc1-c1ccnc2c(-c3ccc(Br)cc3)c(C)nn12 -6.81%
CCc1ccc(Cn2c(CNS(=O)(=O)c3ccc(Cl)s3)nc3cccnc32)cc1 -21.2%
CCOC(=O)c1cc2c(=O)n3ccccc3nc2n(CC2CCCO2)c1=NC(=O)c1ccccc1F (stereo unspecified) -7.99%
COc1ccc(CNC(=O)C(C)n2nc(C)c3sc4ccccc4c3c2=O)cc1OC (stereo unspecified) -12.8%
Cc1ccccc1NC(=O)CSc1nnc(-c2cccc(Cl)c2)o1 19.1%
Cc1nn2c(=O)cc(COC(=O)c3ccc(NC(=O)c4ccc(C(C)(C)C)cc4)cc3)nc2s1 -13.5%
Cc1csc2nc(-c3cccc(NC(=O)c4ccccc4F)c3)cn12 21.7%
Cc1ccc(C)c(N2CCN(C(=O)c3cc(S(=O)(=O)N4CCCC4)c[nH]3)CC2)c1 -20.6%
CCCOc1ccc(C(=O)Nc2ccc(NC(=O)c3cccc(Cl)c3)cc2)cc1 -11.6%
COc1cccc(Nc2cc(-c3ccccc3)nc(C)n2)c1 23.7%
COc1ccc(NC(=O)c2c(NCc3cccc(OC)c3)sc3c2CCC3)cc1 -7.02%
Cc1cccc(Nc2ncnc3c2cnn3C)c1C -11.3%
Cc1ccc2c(c1)N(C(=O)N1CCC(C(=O)NC3CCCCCC3)CC1)CCO2 -23.2%
CN(C)c1ccc(-c2nc(-c3ccncc3)no2)cc1[N+](=O)[O-] 3.91%
COC(=O)c1ccc(NC(=O)CC2C(=O)N(c3ccccc3)C(=O)N2C2CCCC2)cc1 (stereo unspecified) -22.8%
COc1ccc(CC(=O)N2CC(=O)Nc3ccc(Br)cc3C2c2ccc(F)cc2)cc1OC (stereo unspecified) -17.3%
COc1cc2nc(NCc3ccccc3Cl)n3nc(-c4cccnc4)nc3c2cc1OC -10.4%
COc1ccc(Cn2c(C(=O)O)c(CNC3CCC(C)CC3)c3ccc(C)cc32)cc1 (stereo unspecified) -9.59%
COc1cc(C(=O)N2CCC(c3ccncc3)CC2)cc(OC)c1OC -18%
COc1cccc(CNC(=O)c2cc(-c3cccs3)nc3ccccc23)c1 -15.2%
COCCCNC(=O)CSc1nc2nc(C)c(Cc3ccccc3Cl)c(C)n2n1 -19.9%
Cn1nc(-c2ccccc2)c(-c2ccccc2)c(C(=O)Nc2ccc(S(N)(=O)=O)cc2)c1=O -10.6%
